Measurements reported in PubChem BioAssay AID485344 (National Center for Advancing Translational Sciences (NCATS), 2010).
The whole screen tested about 340,000 compounds, of which about 6,900 (2%) were called active. Rule as the data show it: active = inhibition above about 30%; inactive = below that, where a call was filed. The list shows a part of the results, in another mix than the full data. The source gives no active or inactive call for entries shown without one.

Target: D(2) dopamine receptor (Homo sapiens) (UniProt P14416)
UniProt P14416, sequence (P14416 whole entry, looked up): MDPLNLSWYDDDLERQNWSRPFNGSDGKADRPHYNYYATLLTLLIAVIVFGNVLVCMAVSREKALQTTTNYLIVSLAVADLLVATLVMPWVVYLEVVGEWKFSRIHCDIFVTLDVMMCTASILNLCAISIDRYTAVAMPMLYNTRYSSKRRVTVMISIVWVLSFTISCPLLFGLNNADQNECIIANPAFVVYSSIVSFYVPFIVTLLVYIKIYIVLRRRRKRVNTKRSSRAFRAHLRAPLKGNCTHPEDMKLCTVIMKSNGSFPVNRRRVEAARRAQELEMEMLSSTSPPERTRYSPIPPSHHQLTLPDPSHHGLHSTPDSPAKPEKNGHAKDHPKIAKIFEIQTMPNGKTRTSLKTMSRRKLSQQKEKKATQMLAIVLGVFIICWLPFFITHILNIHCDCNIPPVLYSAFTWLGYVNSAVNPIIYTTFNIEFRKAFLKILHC
Assay: HTS Assay for Allosteric Antagonists of the Human D2 Dopamine Receptor: Primary Screen for Antagonists; also: 0% is about no effect
Conditions: HEK293 TREx D2 cells, calcium flux, dopamine EC80; at 10 µM; stronger effect = higher value
Summary of the method: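 Measurement of antagonist activity uses fluorescent calcium dye in inducible HEK293 T-REx D2 cells: 10 s baseline, compound addition with 180 s read, EC80 dopamine addition with a further 180 s read.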

Structure (SMILES) | inhibition
COc1ccc(CCNC(=O)c2c(O)nc3ccccn3c2=O)cc1 | 9.13%
COc1ccc(CNC(=O)C2CCCN(S(=O)(=O)c3ccc(-n4cnnn4)cc3)C2)cc1 (stereo not drawn) | active: 36%
Nc1nonc1-c1nc2ccccc2n1Cc1cccc(Cl)c1 | -3.93%
CCOc1ccc(NC(=O)CC2C(=O)N(c3ccc(C)cc3)C(=O)N2CCC2=CCCCC2)cc1 (stereo not drawn) | 8.36%
CC(C)c1ccc(NC(=O)c2ccc(F)c(S(=O)(=O)N3CCc4ccccc4C3)c2)cc1 | 10.6%
Cc1ccc(CN(C(=O)c2ccccc2F)c2ccccn2)o1 | -4.2%
Cc1ccccc1OCC(O)CN1CCN(CC(O)COc2ccccc2C)CC1 (stereo not drawn) | active: 61.6%
O=C(c1cccn2c(=O)c3cc(Cl)ccc3nc12)N1CCN(c2ccccc2F)CC1 | -6.87%
CC(=O)Nc1ccc(S(=O)(=O)N2CCC(c3nnnn3-c3ccccc3)CC2)cc1 | -11.6%
CCOc1ccc(-n2nc(CO)c(C(=O)NCCCc3ccccc3)n2)cc1 | -2.49%
Cc1cc(C)cc(Oc2coc3cc(OCC(=O)NC4CCCCC4)ccc3c2=O)c1 | 3.81%
COc1ccccc1N1CCN(Cc2cccs2)CC1 | active: 82.9%
Cc1cc(N)c(-n2cc3c(c2-c2ccc(Br)cc2)c(=O)n(C)c(=O)n3C)cc1C | 7.73%
O=C(O)CCCNc1cc(N2CCN(C3CCCCC3)CC2)c2noc3c2c1C(=O)c1ccccc1-3 | 3.32%
CCOc1ccc(-c2cc(C(=O)Nc3ccc(NC(C)=O)cc3)no2)cc1 | -12%
CCOc1ccc(OCC)c(NC(=O)CC(C)n2nc(C)cc2C)c1 (stereo not drawn) | 19.2%
Cc1ccc2onc(CNC(=O)NCc3cccc(Cl)c3)c2c1 | 13.3%
CCCS(=O)(=O)N1CC(=O)N(c2cc(C)ccc2C)C(C)(C(=O)NC2CCCCCC2)C1 (stereo not drawn) | 18.2%
CC(C)N1C(=O)C(O)(c2c[nH]c3ccccc23)c2ccccc21 (stereo not drawn) | -8.07%
N#CC1=C(N)N(c2cccc(Cl)c2)C2=C(C(=O)CCC2)C1c1cc(CN2CCOCC2)cs1 (stereo not drawn) | 26%
COc1cccc(-c2cn3c(n2)sc2cc(C(=O)NCCc4ccc(OC)c(OC)c4)ccc23)c1 | -0.751%

Structure (SMILES) | inhibition
CSc1cccc(NC(=O)CN2CCN(Cc3ccccc3C)S2(=O)=O)c1 | -7.34%
Cc1cccc(N2C(=O)CS(=O)(=O)C23C(=O)N(Cc2c(F)cccc2Cl)c2ccccc23)c1 (stereo not drawn) | 2.21%
OCCN1CCN(C(c2ccccc2Cl)c2sc3nc(-c4ccco4)nn3c2O)CC1 (stereo not drawn) | 26.5%
CCc1ccccc1NC(=O)Cn1nc(C(F)(F)F)c2c1CCCC2 | -1.67%
O=C(CCN1CCN(c2ccccc2F)CC1)Nc1cccc(F)c1 | active: 79.7%
Clc1cccc(CNc2cc(-c3ccccc3)nc3nncn23)c1 | 12.2%
Cc1cc(C)c(NC(=O)CCn2c(=O)c3cccn3c3cccnc32)c(C)c1 | -2.04%
CC1=Nc2ccccc2/C1=C\c1sc(Nc2ccc(C)cc2)nc1O | active: 61%
COc1ccccc1/C=N\Nc1cn[nH]c(=O)c1Cl | active: 30.1%
COc1ccc(CCC(=O)NC2CC(=O)N(c3cccc(F)c3)C2)cc1 (stereo not drawn) | 24.7%
CCC(=O)n1nc(-c2cccnc2)nc1NCc1ccc(F)cc1 | 6.24%
O=C(Cn1c(=O)oc2cc(S(=O)(=O)NCc3ccccc3)ccc21)Nc1ccc(F)c(Cl)c1 | 1.01%
COc1ccc(NC(=O)CCCSc2nc(-c3ccco3)cc(C(F)(F)F)n2)c(OC)c1 | 0.796%
COc1cccc(OCc2nc3ccccc3n2Cc2ccccc2C)c1 | -19.1%
CCCOC(=O)c1c(NC(=O)C2c3ccccc3Oc3ccccc32)sc2c1CCCC2 | -7.5%
COc1cc(NC(=O)Cn2nnc(-c3ccc(C(F)(F)F)cc3)n2)c(C(=O)O)cc1OC | -27%
CN(Cc1ccccc1)Cc1c[nH]c2ccccc12 | active: 34.6%
O=C(COCc1cc(-c2cccs2)on1)NCc1ccc(Cl)cc1 | -4.21%
COc1cccc(CNC(=O)Cc2csc3ccccc23)c1OC | -4.97%
Cc1ccc(NC(=O)CSc2nc3[nH]c(=O)cc(O)c3s2)c(Br)c1 | active: 58.9%
COc1cccc(C2NC(=O)NC(C)=C2C(=O)Nc2ccc(C)cc2)c1OC (stereo not drawn) | active: 31%

Structure (SMILES) | inhibition
Cc1cc(C)c(NS(=O)(=O)c2ccc(-c3cnc(C4CC4)o3)cc2)c(C)c1 | 8.9%
CCc1ccc(NC(=O)Cn2ccn(Cc3ccccc3OC)c(=O)c2=O)cc1 | 4.69%
Cc1ccc(-n2nc(C)c3c(C)cc(=O)n(CC(=O)N4CCCc5ccccc54)c32)cc1 | -3.33%
Cc1ccc(NC(=O)c2c(C)oc3ncnc(N4CCCCC4)c23)cc1Cl | -4.38%
CCn1cc(S(=O)(=O)c2cccc(Cl)c2)c(=O)c2cc(F)c(N3CCC(C)CC3)cc21 | 5.36%
COc1ccc(C)cc1NC(=O)CCc1c(C)nn(-c2ccc(N3CCOCC3)nn2)c1C | -12.8%
COc1cccc(-c2ccc3c(N)c(C(=O)c4ccc(Br)cc4)sc3n2)c1 | -7.4%
Cc1ccc(NC(=O)C(=O)NCC(c2cccnc2)N2CCOCC2)cc1Cl (stereo not drawn) | 1.74%
Cc1nc2c(-c3ccccc3)c(C)[nH]n2c(=O)c1Cc1ccccc1 | active: 42.6%
CCCSc1nnc(Sc2nnnn2-c2ccccc2)s1 | active: 44.5%
CCSc1nnc2c(n1)OC(c1ccc(C)cc1)N(C(C)=O)c1ccccc1-2 (stereo not drawn) | 13.5%
COCCNC(=O)CCC(=O)N1Cc2cccc(OC)c2Oc2ncccc21 | -2.37%
COc1ccc(CNC(=O)CCCN2C(=O)CSc3c2c(C)nn3-c2ccccc2)c(OC)c1 | 7.36%
OC(COc1ccc2c(c1)OCO2)CN1CCN(c2ccccc2)CC1 (stereo not drawn) | active: 81.5%
Cc1ccc(-c2[nH]c3ccccc3c2SCCNC(=O)c2ccc(S(=O)(=O)N(C)C)cc2)cc1 | -11.1%
COc1ccc(Cl)cc1NC(=O)CCS(=O)(=O)c1cccc2nonc12 | 13%
Cc1cccc(C)c1OCC(=O)OCC(=O)c1ccc2c(c1)NC(=O)CO2 | active: 30.2%
COc1cccc(CSc2nc3n(n2)C(c2cccc(F)c2)C(C(=O)Nc2ccccc2C)=C(C)N3)c1 (stereo not drawn) | 24.6%
CN(C)c1cc2c(cc1NS(=O)(=O)c1ccccc1)n(C)c(=O)n2C | -0.356%
Cc1cccc(N2CCN(C(=O)c3ccc(CS(=O)c4cccc(Cl)c4)o3)CC2)c1C (stereo not drawn) | -4.61%
COc1ccc(CN(C(=O)Nc2cccc(Cl)c2)c2ccccn2)cc1OC | 8.02%
